The record followed here is the supplement of paper PMC6089552.

The subject of the assay is A673/TR/shEF. Description: cell viability (LOESS-normalised, relative to median of negative controls) (log2 ratio); higher = more viable cells (less compound effect), active = hit call of the paper (over 3 MAD below the median). The settings on record: treatment time: 72 h. A digest of the protocol: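 Doxycycline, present or absent from 24 h before compounds, was used to induce EWS-FLI1 shRNA knockdown in A673/TR/shEF Ewing sarcoma cells at 1,500 per well in 384-well plates. Cells then received library compounds at two or more concentrations, or DMSO controls, for three days. Viability was measured by CellTiter-Glo luminescence on an Envision reader, and per-plate LOESS correction, division by the negative-control median and log2 transformation followed.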

Setting [1] is: 0.25 µM, library screen: screen1, EWS-FLI1 expression: high (no doxycycline).
Where [2] appears, read: 0.25 µM, library screen: screen1, EWS-FLI1 expression: low (doxycycline-induced shRNA knockdown).
Setting [3] is: 0.25 µM, library screen: screen2, EWS-FLI1 expression: high (no doxycycline).
Setting [4] is: 0.25 µM, library screen: screen2, EWS-FLI1 expression: low (doxycycline-induced shRNA knockdown).
Where [5] appears, read: 2.5 µM, library screen: screen1, EWS-FLI1 expression: high (no doxycycline).
Where [6] appears, read: 2.5 µM, library screen: screen1, EWS-FLI1 expression: low (doxycycline-induced shRNA knockdown).
Setting [7] is: 2.5 µM, library screen: screen2, EWS-FLI1 expression: high (no doxycycline).
[8] abbreviates: 2.5 µM, library screen: screen2, EWS-FLI1 expression: low (doxycycline-induced shRNA knockdown).

About 300 (9.4%) of roughly 3,200 compounds showed activity. The entries are a selection whose mix differs from that of the whole data set.

For `CCCc1ncc(C[n+]2ccccc2C)c(N)n1`, the “cell viability (log2)” value is inactive: 0.138 (0.025 µM, library screen: screen2, EWS-FLI1 expression: high (no doxycycline)); inactive: 0.0892 (0.025 µM, library screen: screen2, EWS-FLI1 expression: low (doxycycline-induced shRNA knockdown)); inactive: 0.134 under setting [1]; inactive: 0.0903 under setting [2]; inactive: 0.0943 under setting [3]; inactive: 0.0537 under setting [4]. The “cell viability (log2)” value was inactive: 0.166 under setting [5]; inactive: 0.229 under setting [6]; inactive: 0.141 under setting [7]; inactive: 0.0526 under setting [8]; inactive: 0.107 (25 µM, library screen: screen2, EWS-FLI1 expression: high (no doxycycline)); inactive: 0.0399 (25 µM, library screen: screen2, EWS-FLI1 expression: low (doxycycline-induced shRNA knockdown)).

For `Cc1cc(Nc2ccc(O)cc2)n2c(nc3ccccc32)c1C#N`, the “cell viability (log2)” value is inactive: 0.079 under setting [1], inactive: 0.0759 under setting [2], inactive: 0.0987 under setting [5] and inactive: 0.0687 under setting [6].

Regarding `CCN(CC)Cc1ccc(Nc2ccnc3cc(Cl)ccc23)cc1O`, the “cell viability (log2)” value was inactive: 0.0722 under setting [1], inactive: 0.126 under setting [2], inactive: 0.197 under setting [5] and inactive: 0.302 under setting [6].

For the molecule `N#C/C(=C\c1ccc(O)c(O)c1)C(=O)Nc1ccccc1`, the “cell viability (log2)” value by setting is: (0.025 µM, library screen: screen1, EWS-FLI1 expression: high (no doxycycline)) inactive: 0.188; (0.025 µM, library screen: screen1, EWS-FLI1 expression: low (doxycycline-induced shRNA knockdown)) inactive: -0.0571; under setting [1], inactive: 0.155; under setting [2], inactive: 0.0428; under setting [3], inactive: 0.0861; under setting [4], inactive: 0.0194. Further, the “cell viability (log2)” value is, setting by setting: under setting [5], active: -0.16; under setting [6], inactive: 0.0541; under setting [7], inactive: 0.105; under setting [8], inactive: 0.00853; (25 µM, library screen: screen1, EWS-FLI1 expression: high (no doxycycline)) active: -0.692; (25 µM, library screen: screen1, EWS-FLI1 expression: low (doxycycline-induced shRNA knockdown)) inactive: 0.0298.

Regarding `Nc1ccc(S(=O)(=O)NC(=O)c2ccccc2)cc1`, the “cell viability (log2)” value is, setting by setting: under setting [1], inactive: 0.0184; under setting [2], inactive: 0.0215; under setting [5], inactive: 0.0764; under setting [6], inactive: 0.0963.

`CCCC[C@@]1(C2CCCC2)Cc2cc(OCC(=O)O)c(Cl)c(Cl)c2C1=O`: the “cell viability (log2)” value reads like this: under setting [3], inactive: -0.00877; under setting [4], inactive: 0.109; under setting [7], inactive: 0.0409; under setting [8], inactive: 0.0461.

As for `OC[C@H]1O[C@@H](O[C@@H]2[C@@H](CO)O[C@](O)(CO)[C@H]2O)[C@H](O)[C@@H](O)[C@H]1O`, the “cell viability (log2)” value runs as follows: under setting [1], inactive: 0.0803; under setting [2], inactive: -0.00929; under setting [5], inactive: 0.122; under setting [6], inactive: -0.0194.

`C=C(CC)C(=O)c1ccc(OCC(=O)O)c(Cl)c1Cl`: the “cell viability (log2)” value is, setting by setting: under setting [1], inactive: 0.131; under setting [2], inactive: 0.0533; under setting [5], inactive: 0.173; under setting [6], inactive: 0.177.

`CCNC(=O)[C@H]1O[C@@H](n2cnc3c(N)nc(NCCc4ccc(CCC(=O)O)cc4)nc32)[C@H](O)[C@@H]1O`: the “cell viability (log2)” value by setting is: under setting [3], inactive: 0.0503; under setting [4], inactive: 0.0859; under setting [7], inactive: 0.00577; under setting [8], inactive: 0.0921.

On to `O=c1cc(-c2ccc(O)cc2)oc2cc(O[C@@H]3O[C@H](CO)[C@@H](O)[C@H](O)[C@H]3O[C@@H]3OC[C@](O)(CO)[C@H]3O)cc(O)c12`, for which the “cell viability (log2)” value is inactive: 0.0435 under setting [1], inactive: 0.0313 under setting [2], inactive: 0.0845 under setting [5] and inactive: 0.031 under setting [6].

Take `C[C@](N)(Cc1ccc(O)cc1)C(=O)O`: the “cell viability (log2)” value is, setting by setting: under setting [3], inactive: 0.132; under setting [4], inactive: 0.0842; under setting [7], inactive: 0.134; under setting [8], inactive: 0.0355.

As to `O=C1CC(c2ccccc2)Oc2ccccc21` (stereo not given), the “cell viability (log2)” value was inactive: -0.00433 under setting [1], inactive: 0.123 under setting [2], inactive: 0.163 under setting [5] and inactive: 0.184 under setting [6].

For the molecule `CNc1ncnc2c1ncn2[C@@H]1O[C@H](CO)[C@@H](O)[C@H]1O`, the “cell viability (log2)” value is, setting by setting: under setting [3], inactive: 0.104; under setting [4], inactive: 0.0674; under setting [7], inactive: 0.0505; under setting [8], inactive: 0.098.

As for `N[C@@H](CC(=O)O)C(=O)O`, under setting [3], the “cell viability (log2)” value is active: -0.146.

Regarding `c1ccc2c(c1)CCCC2C1=NCCN1` (stereo not given), the “cell viability (log2)” value by setting is: under setting [1], inactive: 0.0777; under setting [2], inactive: 0.0443; under setting [3], inactive: 0.0558; under setting [4], inactive: 0.0569; under setting [5], inactive: 0.13; under setting [6], inactive: 0.185. Moreover, the “cell viability (log2)” value is inactive: 0.113 under setting [7] and inactive: -0.0209 under setting [8].

Take `CCC(C)[C@H]1O[C@]2(CC[C@@H]1C)CC1C[C@@H](C/C=C(\C)[C@@H](O[C@H]3C[C@H](OC)[C@@H](OC4C[C@H](OC)[C@@H](O)[C@H](C)O4)[C@H](C)O3)[C@@H](C)/C=C/C=C3\CO[C@@H]4[C@H](O)C(C)=C[C@@H](C(=O)O1)[C@]34O)O2.CO[C@H]1CC(O[C@H]2[C@H](C)O[C@@H](O[C@@H]3/C(C)=C/C[C@@H]4CC(C[C@]5(CC[C@H](C)[C@@H](C(C)C)O5)O4)OC(=O)[C@@H]4C=C(C)[C@@H](O)[C@H]5OC/C(=C\C=C\[C@@H]3C)[C@]54O)C[C@@H]2OC)O[C@@H](C)[C@@H]1O` (stereo not given in full): the “cell viability (log2)” value under setting [7] is active: -0.104; the “cell viability (log2)” value (2.8 µM, library screen: screen3, EWS-FLI1 expression: high (no doxycycline)) is active: -0.279; the “cell viability (log2)” value (2.8 µM, library screen: screen3, EWS-FLI1 expression: low (doxycycline-induced shRNA knockdown)) is active: -0.285; the “cell viability (log2)” value (8.3 µM, library screen: screen3, EWS-FLI1 expression: high (no doxycycline)) is active: -0.239; the “cell viability (log2)” value (8.3 µM, library screen: screen3, EWS-FLI1 expression: low (doxycycline-induced shRNA knockdown)) is active: -0.115; the “cell viability (log2)” value (25 µM, library screen: screen3, EWS-FLI1 expression: high (no doxycycline)) is active: -3.03. In addition, the “cell viability (log2)” value (25 µM, library screen: screen3, EWS-FLI1 expression: low (doxycycline-induced shRNA knockdown)) was active: -1.99.

For `C=C(C)[C@@H]1CC[C@]2(C(=O)O)CC[C@]3(C)[C@H](CC[C@@H]4[C@@]5(C)CC[C@H](O)C(C)(C)[C@@H]5CC[C@]43C)[C@@H]12`, the “cell viability (log2)” value under setting [1] is inactive: 0.0559, the “cell viability (log2)” value under setting [2] is inactive: 0.0935, the “cell viability (log2)” value under setting [5] was inactive: 0.0993 and the “cell viability (log2)” value under setting [6] is inactive: 0.08.

With `Oc1ccc2c(c1)OC[C@]1(O)Cc3cc(O)c(O)cc3[C@H]21`, the “cell viability (log2)” value under setting [1] was inactive: 0.113, the “cell viability (log2)” value under setting [2] was inactive: 0.129, the “cell viability (log2)” value under setting [5] was inactive: 0.0951 and the “cell viability (log2)” value under setting [6] was inactive: 0.187.

As to `C1N2CN3CN1CN(C2)C3`, the “cell viability (log2)” value is inactive: 0.0393 under setting [1], inactive: -0.017 under setting [2], inactive: 0.125 under setting [5] and inactive: 0.0127 under setting [6].

Turning to `O=C(O)C1=C[C@@H](O)[C@@H](O)[C@H](O)C1`, the “cell viability (log2)” value by setting is: under setting [1], inactive: 0.0508; under setting [2], inactive: 0.101; under setting [5], inactive: 0.101; under setting [6], inactive: 0.134.
